The values below come from the RNAGym collection of RNA variant scans (doi:10.1093/nar/gkz1192).

B1: CPEB3 Ribozyme (parent)
chain: UAACAGGGGGCCACAGCAGAAGCGUUCACGUCGCAGCCCCUGUCAGAUUCUGGUGAAUCUGCGAAUUCUGCUGUAUAUCUC

Read counts are not given, so values of variants with three or more changes are uncertain.

In this series the parent is B1. Briefly: self-cleavage, relative activity (ratio to wild type); higher = more cleavage; in vitro, sequencing. The procedure, abridged:
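After error-prone PCR and barcoding, CPEB3 ribozyme mutant libraries were transcribed with T7 RNA polymerase at 37°C for 5 hours, then given 15 min with DNase I before an EDTA stop, and they cleaved during both steps. Reverse transcription with template switching preceded Illumina sequencing. Relative activity divides a variant's cleaved/total read fraction by the unmutated ribozyme's. At least 5 reads were required per variant, and three batches were averaged.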
Turning to UAACAGGGGGCCACAGCAGAAGCGUUCGCGUCGCAGCCCCUUACAGACUCUGGUGAAUCAGCGAAUUCUGCUGUAUAUCUC [A28G G42U U43A U48C U60A], the self-cleavage was found to be 0.17.
For UAACAGGGGGCCACAGCAGAAGCGUUCGCGUCGCAGCCCCUGUCAGAUUCUGAUGAAUCUGCGAAUUCUGCAGUAUAUCUC [A28G G53A U72A], the self-cleavage was 0.32.
Take UAACAGGGGGCCACAGCAGAAGCGUUCGCGUCGCAGCCCCUGUCAGAUUCUGAUGAAUCUGCGAAUUCCGCUGUAUAUCUC [A28G G53A U69C]: the self-cleavage was 0.28.
On to UAACAGGGGGCCACAGCAGAAGCGUUCGCGACGCAGCCCCUGUCAGAUUCUGGUGAAUCUGCGAAUUCUGCCGUAUAUCUC [A28G U31A U72C], for which the self-cleavage was 0.37.
Then UAACAGGGGGCCACAGCAGAAGCGUUCGCGACGCAGCCCCUGUCAGAUUCUGGUGAAUCUGCGAAUUCUGCUGUAUAACUC [A28G U31A U78A], with 0.33; and UAACAGGGGGCCACAGCAGAAGCGUUCGCGCCGCGGCCCCUGUCAGAUUCUGGUAGAUCAGCGAAUUCUGCUGUAUAUCUC [A28G U31C A35G G55A A56G U60A], with 0.17; and UAACAGGGGGCCACAGCAGAAGCGUUCGCGACGCAGCCCCUGUCAGAUUCUGGUGAAUCUGCGAAUCCAGCUGCAUACCUC [A28G U31A U67C U69A U74C U78C], with 0.1.
Take UAACAGGGGGCCACAGCAGAAGCGUUCGCGACGCAGCCCCUGUCGGAUUCUGGUGAAUCUGCGAAUUCUGCUGUAUAUCUC [A28G U31A A45G]: the self-cleavage worked out at 0.18.
On to UAACAGGGGGCCACAGCAGAAGCGUUCGCGUCGCAGCCCCUGUCAGAUUCUCGUGAGUCUGCGGAUUAUGCUGUAUAUCUC [A28G G52C A57G A64G C68A], for which the self-cleavage was 0.16.
With UAACAGGGGGCCACAGCAGAAGCGUUCGCGACGCAGCCCCUGCCAGAUUCUGGUGAAUCUGCGAAUUCUGCGGUACAUCUC [A28G U31A U43C U72G U76C], the self-cleavage amounted to 0.11.
Regarding UAACAGGGGGCCACAGCAGAAGCGUUCGCGUCGCAGCCCCUGUCAGAUUCUGGUGAAUCUGCUGAUUCUGCUGUAUAACUC [A28G G63U A64G U78A], the self-cleavage turned out to be 0.38.
In the case of UAACAGGGGGCCACAGCAGAAGCGUUCGCGUCGCAUCCCCUGUCAGACACUGGUGAAUCUGCGAACUCUGCUGUAUAUCUC [A28G G36U U48C U49A U66C], the self-cleavage stood at 0.1.
As for UAACAGGGGGCCACAGCAGAAGCGUUCGCGUCGCAGCCCCUAUCAGAUUCCGGUGAAUCUGCGAACUCUGCUGUAUGUCUC [A28G G42A U51C U66C A77G], the self-cleavage is 0.1.
Regarding UAACAGGGGGCCACAGCAGAAGCGUUCGCGUCGCAGCCCCUGUCAGAUUCUGAUGAAUCUGCGAAUCCUGCAGUAUAUCCC [A28G G53A U67C U72A U80C], the self-cleavage worked out at 0.13.
As for UAACAGGGGGCCACAGCAGAAGCGUUCGCGUCGCAGCCCCUAUCAAAUUCAGGUGGAUCUGCGAAUUCUGCUCUAUAUCUC [A28G G42A G46A U51A A56G G73C], the self-cleavage came out at 0.14.
Consider UAACAGGGGGCCACAGCAGAAGCGUUCGCGACGCAGCCCCUGUCAGAUUCUGGUGAAUCUGCGAAUUCAGCUGCAUAUCUC [A28G U31A U69A U74C], for which the self-cleavage is 0.19.
Regarding UAACAGGGGGCCACAGCAGAAGCGUUCGCGUCGCACCCCCUGUCAGAUUCUGGUGGAUCUGCGAAUUCUGCUGUAUAUCUC [A28G G36C A56G], the self-cleavage is 0.17.
Turning to UAACAGGGGGCCACAGCAGAAGCGUUCGCGUCGCAACCCCUGUCAGAUUCUGGCGAGUCUGCGAAUUCUGCUGUAUAUCCC [A28G G36A U54C A57G U80C], the self-cleavage worked out at 0.06.
For the variant UAACAGGGGGCCACAGCAGAAGCGUUCGCGAUGCAGCCCCUGUCAGGUUCUGGUGAAUCUGCGAAUUCUGCUGUAUAUCAC [A28G U31A C32U A47G U80A], the self-cleavage came to 0.24.
With UAACAGGGGGCCACAGCAGAAGCGUUCGCGACGCAGCCCCUGUCAGAUCCUGGUGAAUCUGCGAAUUCUGCUGUACAUCUC [A28G U31A U49C U76C], the self-cleavage amounted to 0.14.
Turning to UAACAGGGGGCCACAGCAGAAGCGUUCGCGUCGCAGCCCCUGUCAAAUUCUGGUGAAUCUGCGAAUGCUGCUGUAUAUCUC [A28G G46A U67G], the self-cleavage was found to be 0.12.
In the case of UAACAGGGGGCCACAGCAGAAGCGUUCGCGCCGCGGCCCCUGUCAGAUUCUGGAGAAUCUGCGAAUUCAGCUGUAUAUCUC [A28G U31C A35G U54A U69A], the self-cleavage was determined as 0.41.
With UAACAGGGGGCCACAGCAGAAGCGUUCGCGUCGCAGCCCCUAUCAGAUUCCGGUGAAUCUGCGAAUUCUGCUGUAUAUCUC [A28G G42A U51C], the self-cleavage was determined as 0.21.
For UAACAGGGGGCCACAGCAGAAGCGUUCGCGUCGCAGCCCCUGUCAGAUUCUAGUGAAUCUGCGAAUCCUGCUGUAUAUCUC [A28G G52A U67C], the self-cleavage came to 0.4.
Then UAACAGGGGGCCACAGCAGAAGCGUUCGCGUCGCAACCCCUGUCAGAUUCUGGUGAAUCUGCGAAUCCAGCUGUAUAUCUC [A28G G36A U67C U69A], with 0.34; and UAACAGGGGGCCACAGCAGAAGCGUUCGCGUCGCAGCCCCUGUCAGAUUCUGGUAGAUCUGCAAAUUCUGCUGUAUAUCUC [A28G G55A A56G G63A], with 0.18.
Regarding UAACAGGGGGCCACAGCAGAAGCGUUCGCGACGCGGCCCCUGUCAGUUCCUGGUGAAUCUGCGAAUUCUGCCGUAUAUCUC [A28G U31A A35G A47U U49C U72C], the self-cleavage was found to be 0.07.
With UAACAGGGGGCCACAGCAGAAGCGUUCGCGACGCAGCCCCUGUCAGAUUCUUGUGAGUCUGCGAAUUCUGCUGUAUAUCUC [A28G U31A G52U A57G] the figure was 0.28; with UAACAGGGGGCCACAGCAGAAGCGUUCGCGACGCAGCCCCUGUCAGAUCCAGGUGAAUCUGCGAAUUCUGCUGUAUAUCUC [A28G U31A U49C U51A], 0.07.
On to UAACAGGGGGCCACAGCAGAAGCGUUCGCGUCGCAUCCCCUGUCAGAUUCUGGUGAAUCUGCGAAUUCUGCUGUAUAACUC [A28G G36U U78A], for which the self-cleavage was determined as 0.13.
Then UAACAGGGGGCCACAGCAGAAGCGUUCGCGACGCAGCCCCUGUCAGAUUCUGGUGAAUCCGCGAAUUCUGCUGUAUAUCUC [A28G U31A U60C], with 0.44.
Regarding UAACAGGGGGCCACAGCAGAAGCGUUCGCGACGCAGCCCCCGUCAGAUCCUGGUGAAUCUGCGAGUUCUGCUGUAUAUCAC [A28G U31A U41C U49C A65G U80A], the self-cleavage was found to be 0.09.
With UAACAGGGGGCCACAGCAGAAGCGUUCGCGACGCAGCCCCAGUCAGGUUCUGGUGGAUCUGCGAAUUCUGCUGUAUAACUC [A28G U31A U41A A47G A56G U78A] the figure was 0.08; with UAACAGGGGGCCACAGCAGAAGCGUUCGCGACGCAGCCCCUGUCAGAUUCUGGUGAAUCUGCGAAUUCUGCUGCAUAUCUC [A28G U31A U74C], 0.57.
